# Measurements from PubChem BioAssay AID445 (National Center for Advancing Translational Sciences (NCATS), 2006).
# About 40 (0.04%) of roughly 110,000 compounds were called active. Inconclusive results, whose numbers are uncertain, are shown with a selection of clear calls. Calls come from the whole dose curve; as a rule, active = well fitted curve in the direction sought with a large enough effect in the signal ratio (not every such curve was filed as active); inconclusive = small, poorly fitted or top-dose-only effect, or a change in a side signal; inactive = flat fitted curve, though single readings scatter; the % refers to the signal ratio. Where the call is inconclusive, the potency comes from a doubtful curve fit.
# Assay: IkB Signaling;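 for IkBa stabilization activation: 0% = basal untreated cells and 100% = reference inhibitor full response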
# Details: ABC-DLBCL IkBa-CBG/CBR dual luciferase ratio (green luciferase fused to IkBa over red control in OCI-Ly3 lymphoma cells), 4 h; IkBa stabilization activation: at 57.1 µM (top of the series), scaled: untreated 0%, proteasome inhibitor 100% unless noted
# Procedure, shortened: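 Luminescence ratio of IκBα-fused green versus native red beetle luciferase in OCI-Ly3 cells, 4 h post-doxycycline with compound; red signal alone, scaled from basal (0%) to zero light (-100%), flagged nonspecific or cytotoxic effects.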
# Potency is the fitted concentration of half-maximal effect.
SMILES,Potency,IkBa stabilization activation
COc1ccc2c(c1)Cc1sc(NC(=O)c3cccc(C)c3)nc1-2,inconclusive: 3.98 µM [signal inhibitor],–
Cc1ccc(OCC(=O)OC2=C(C(=O)c3ccccc3)N(C)S(=O)(=O)c3ccccc32)cc1,–,inconclusive: -1.89% [signal inhibitor]
CCc1ccc(NS(=O)(=O)c2cc(-c3cnc(C4CC4)o3)ccc2C)cc1,–,inactive
Cc1ccc(-n2nc(C(=O)NCc3ccco3)c3c4ccccc4n(C)c3c2=O)cc1,–,inactive
COc1cccc(CNc2ccc3nc(-c4ccc(N)cc4)c(OC)n3n2)c1,–,inactive
O=C(CCCSc1nnc(-c2cccs2)n1CC1CCCO1)c1ccccc1 (centres undefined),–,inconclusive: -0.512% [signal inhibitor]
CC(C)n1c(SCCCc2ccccc2)nc2c1c(=O)[nH]c(=O)n2C,–,inactive
CCCn1c(SCC(=O)Nc2ccccc2N2CCCCC2)nc2c1c(=O)n(C)c(=O)n2C,–,inconclusive: 2.59% [signal inhibitor]
CCc1ccc(C2=NN(CCC(=O)NCCc3ccc(OC)c(OC)c3)C(=O)CC2)cc1,–,inactive
CC(C)c1nn2c(=O)cc(COC(=O)c3cccc(NC(=O)c4cccs4)c3)nc2s1,–,inconclusive: 7.2% [signal inhibitor]
CCc1ccccc1NC(=O)CCOc1ccccc1,–,inconclusive: 9.76% [signal inhibitor]
COc1ccc(NC(=O)Nc2ccc3c(c2)N(C)C(=O)CS3)cc1OC,–,inactive
Cc1ccccc1C(=O)Nc1ccc2nc(SCC(=O)N3CCc4ccccc43)sc2c1,–,inconclusive: 2.51% [signal inhibitor]
Cc1cc(C)nc(NS(=O)(=O)c2ccc(Br)cc2)n1,–,inactive
COc1ccccc1NC(=O)CC(c1cc(OC)c(OC)c(OC)c1)N1Cc2ccccc2C1=O (centres undefined),–,inconclusive: 8.49% [signal inhibitor]
CCCCCSc1nc2sc3c(c2c(=O)n1-c1ccc(OC)cc1)CCN(C(C)=O)C3,–,inconclusive: -9.89% [signal inhibitor]
CCOc1cc(C(=O)OCC(=O)c2c(C)[nH]c3ccccc23)ccc1OCC(=O)N1CCOCC1,–,inconclusive: 5.82% [signal inhibitor]
C/C=C/CSc1nc2c(c(=O)[nH]c(=O)n2C)n1Cc1ccc(C)cc1,–,inactive
CCOC(=O)CSc1nnc2n(-c3ccccc3)c(=O)c3c4c(sc3n12)CC(C(C)(C)C)CC4 (centres undefined),–,inconclusive: -3.81% [signal inhibitor]
COc1ccccc1-n1nc(C(=O)Nc2ccc3c(c2)OCO3)c2ccccc2c1=O,–,inactive
O=C(c1cc2nc(-c3ccco3)cc(C(F)(F)F)n2n1)N1CCCc2ccccc21,–,inactive
CCN(Cc1nc2ccccc2c(=O)[nH]1)Cc1cc(=O)oc2cc(C)c(C)cc12,–,inconclusive: 2.49% [signal inhibitor]

SMILES,Potency,IkBa stabilization activation
Cc1sc2ncn(CC(=O)N3CCN(c4ccc(F)cc4)CC3)c(=O)c2c1S(=O)(=O)N1CCC(C)CC1,–,inconclusive: 0.915% [signal inhibitor]
CSCCC(N=CC1=C(O)CC(C)(C)CC1=O)C(=O)O (centres undefined),–,inactive
O=C(c1noc2c1CCCC2)N1CCCCC1,–,inconclusive: 8.14% [signal inhibitor]
COC(=O)C1=C(c2ccccc2)c2ccccc2S(=O)(=O)N1CC(=O)Nc1ccc(F)c(F)c1,–,inconclusive: 7.37% [signal inhibitor]
CCOc1ccc(NC(=O)CN(c2ccc(CC)cc2)S(=O)(=O)c2c(C)noc2C)cc1,–,inactive
Cc1ccc(CNC(=O)C2CCN(S(=O)(=O)c3c(C)noc3/C=C/c3cccs3)CC2)cc1,–,inactive
CC(CCc1nc2ccccc2s1)(c1ccc(O)cc1)c1ccc(O)cc1,–,"inactive: -0.0873% [at 11.4 µM, scaled: untreated 0%, proteasome inhibitor 100%]"
Cc1cccc(OCc2nnc(SCC(=O)N(C(C)C)C(C)C)n2Cc2ccco2)c1C,–,inconclusive: 5.82% [signal inhibitor]
O=C(CCS(=O)(=O)c1cc2c(cc1Cl)NC(=O)CO2)NCc1ccccc1Cl,–,inconclusive: 3.4% [signal inhibitor]
COc1ccc(C2CC(=O)c3cnc(NC(=O)c4cccc(OC)c4)nc3C2)cc1 (centres undefined),–,inconclusive: 7.86% [signal inhibitor]
Oc1c(C(c2ccc(Cl)cc2Cl)N2CCN(c3ccccc3)CC2)sc2nc(-c3ccco3)nn12 (centres undefined),–,inconclusive: 15.6% [signal inhibitor]
O=C(NCc1cccc(Cl)c1)c1ccc(NC(=O)N2CC3CCCN3c3ccccc32)cc1 (centres undefined),–,inconclusive: 2.48% [signal inhibitor]
C=CCN1CN(S(=O)(=O)c2cccs2)c2nc3ccccc3nc21,"inconclusive: 25.1 µM [signal inhibitor, partial curve]",–
COc1ccc(NC(=O)CN2CCCN(Cc3ccc(Cl)cc3)S2(=O)=O)cc1Cl,–,inconclusive: 2.36% [signal inhibitor]
Cc1ccc(S(=O)(=O)Nc2nc3ccccc3nc2NCc2ccco2)cc1C,"inconclusive: 6.31 µM [signal inhibitor, partial curve]",–
Cc1ccc(S(=O)(=O)c2c(N)n(CCN3CCOCC3)c3nc4ccccc4nc23)cc1C,–,inactive
CCOC(=O)c1ccc(NC(=O)Cn2cc(C(=O)c3ccc(CC)cc3)c(=O)c3ccc(C)nc32)cc1,–,inconclusive: -0.124% [signal inhibitor]
CCOC(=O)c1cnc2ccccc2c1NCCc1ccc(OC)c(OC)c1,"inconclusive: 39.8 µM [signal inhibitor, single point]",–
COc1ccc(OC)c(CNC(=O)c2ccc(-c3nc(CSc4ccccc4)c(C)o3)cc2)c1,–,inactive
CN(Cc1ccccc1)S(=O)(=O)c1ccc(-c2cnc(C3CC3)o2)cc1,–,inconclusive: 2.38% [signal inhibitor]
COc1cccc(S(=O)(=O)N2CCN(Cc3ccc4c(c3)OCO4)CC2)c1,–,inconclusive: 7.37% [signal inhibitor]
Cc1cccc(N2CCN(C(=O)CN3CCSc4ccccc43)CC2C)c1 (centres undefined),–,inconclusive: 0.384% [signal inhibitor]
